According to publication PMC8858996 (iScience, 2022):

Molecular target: the molecule itself
Test: FRET or BRET

B1: EphA2 WT tagged at the C-terminus with mTURQ or EYFP (receptor)
chain: [about 500 residues not spelt out]IGGVAVGVVLLLVLAGVGFFIHRRRKNQRARQSPEDVYFSKSEQLKPLKTYVDPHTYEDPNQAVLKFTTEIHPSCVTRQKVIGAGEFGEVYKGMLKTSSGKKEVPVAIKTLKAGYTEKQRVDFLGEAGIMGQFSHHNIIRLEGVISKYKPMMIITEYMENGALDKFLREKDGEFSVLQLVGMLRGIAAGMKYLANMNYVHRDLAARNILVNSNLVCKVSDFGLSRVLEDDPEATYTTSGGKIPIRWTAPEAISYRKFTSASDVWSFGIVMWEVMTYGERPYWELSNHEVMKAINDGFRLPTPMDCPSAIYQLMMQCWQQERARRPKFADIVSILDKLIRAPDSLKTLADFDPRVSIRLPSTSGSEGVPFRTVSEWLESIKMQQYTEHFMAAGYTAIEKVVQMTNDDIKRIGVRLPGHQKRIAYSLLGLKDQVNTVGIPI
**Q.** B1 was tested. Which “stoichiometry N” value did it give?
**A.** Its value is > 2.

B2: EphA2 G131Y tagged at the C-terminus with mTURQ or EYFP (receptor)
chain: [about 500 residues with changes not spelt out]IGGVAVGVVLLLVLAGVGFFIHRRRKNQRARQSPEDVYFSKSEQLKPLKTYVDPHTYEDPNQAVLKFTTEIHPSCVTRQKVIGAGEFGEVYKGMLKTSSGKKEVPVAIKTLKAGYTEKQRVDFLGEAGIMGQFSHHNIIRLEGVISKYKPMMIITEYMENGALDKFLREKDGEFSVLQLVGMLRGIAAGMKYLANMNYVHRDLAARNILVNSNLVCKVSDFGLSRVLEDDPEATYTTSGGKIPIRWTAPEAISYRKFTSASDVWSFGIVMWEVMTYGERPYWELSNHEVMKAINDGFRLPTPMDCPSAIYQLMMQCWQQERARRPKFADIVSILDKLIRAPDSLKTLADFDPRVSIRLPSTSGSEGVPFRTVSEWLESIKMQQYTEHFMAAGYTAIEKVVQMTNDDIKRIGVRLPGHQKRIAYSLLGLKDQVNTVGIPI
**Q.** For B2, which “stoichiometry N” value is on record?
**A.** The value was 2.
